Test results from the supplement of paper PMC12217912.
The list shows a part of the results. The full chains were built here from the parent and the listed change. Values near 0.05 are background.

B1: TEV protease; numbered along this chain (parent)
chain: MGESLFKGPRDYNPISSSICHLTNESDGHTTSLYGIGFGPFIITNKHLFRRNNGTLVVQSLHGVFKVKDTTTLQQHLVDGRDMIIIRMPKDFPPFPQKLKFREPQREERICLVTTNFQTKSMSSMVSDTSCTFPSGDGIFWKHWIQTKDGQCGSPLVSTRDGFIVGIHSASNFTNTNNYFTSVPKNFMELLTNQEAQQWVSGWRLNADSVLWGGHKVFMVKPEEPFQPVKEATQL

Variants of: B1
Assay: raw area under fraction-flipped curve 0-4 h after induction (AUC4h, not background-subtracted), DNA-recorder readout of cleavage of the substrate (dimensionless); higher = more cleavage of the substrate by the protease variant
Settings: temperature: 34 °C; time window: 0-4 h after rhamnose induction
Procedure: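 In vivo DNA recorder in E. coli TOP10(DE3) ΔrhaA at 34 °C. Each TEVp single-site mutant (parent TEVp 0) is paired with a single-site variant of the 7-mer TEVs (canonical ENLYFQ|S). The substrate sits between flexible linkers in a Bxb1-sfGFP-TEVs-SsrA fusion, so cleavage stabilises Bxb1 and speeds flipping of a recombination array, read by NGS. The value is the raw area under the fraction-flipped curve over 0-4 h after rhamnose induction (AUC4h), with ≥20 reads per time point. It is not background-subtracted; inactive controls average about 0.047.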
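Further: Bxb1 expression induced with 0.2% (w/v) L-rhamnose at OD600 near 0.5, cultures sampled hourly, flipped fraction per protease–substrate barcode pair counted by paired-end Illumina sequencing.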

Row | Variant | area with substrate ENLYFAS | area with substrate ENLYFCS | area with substrate ENLYFDS | area with substrate ENLYFES | area with substrate ENLYFFS | area with substrate ENLYFIS | area with substrate ENLYFKS | area with substrate ENLYFLS | area with substrate ENLYFMS | area with substrate ENLYFPS | area with substrate ENLYFRS | area with substrate ENLYFSS | area with substrate ENLYFTS | area with substrate ENLYFYS | area with substrate ENLYFNS | area with substrate ENLYFGS | area with substrate ENLYFVS | area with substrate ENLYFWS | area with substrate ENLYFHS
1 | P96I | 0.0499 | 0.0524 | 0.0563 | 0.0812 | 0.0705 | 0.0497 | 0.0376 | 0.0444 | 0.0519 | 0.0608 | 0.053 | 0.0475 | 0.0355 | 0.0567 | – | – | – | – | –
2 | T71K | 0.0762 | – | 0.0711 | 0.0691 | 0.0687 | 0.0472 | 0.0667 | – | 0.0777 | – | 0.0628 | 0.0596 | – | – | 0.0687 | – | – | – | –
3 | Q74A | 0.062 | 0.0601 | 0.0492 | 0.0401 | 0.0645 | 0.0578 | – | 0.0533 | 0.0711 | 0.0624 | 0.051 | 0.062 | 0.0572 | – | 0.0596 | 0.0589 | 0.0603 | 0.0544 | –
4 | F140Y | 0.0671 | – | – | 0.0686 | – | 0.0549 | – | 0.102 | 0.0592 | – | 0.041 | – | 0.0613 | 0.0558 | – | – | – | – | –
5 | S17T | 0.0723 | 0.062 | – | 0.0558 | 0.0567 | 0.0507 | 0.0456 | 0.0517 | – | 0.0482 | 0.0538 | – | – | 0.06 | 0.08 | – | – | 0.0622 | 0.0649
6 | P40V | 0.0633 | – | 0.0546 | 0.0593 | 0.0568 | 0.0511 | 0.0572 | – | 0.0509 | 0.0662 | 0.0518 | – | – | – | 0.0824 | – | 0.0559 | – | –
7 | E224G | 0.0794 | – | – | – | 0.0641 | 0.0544 | 0.0656 | – | 0.0489 | 0.0599 | 0.0631 | – | – | – | 0.0492 | – | 0.0621 | – | 0.016
8 | Q197A | 0.0595 | 0.0566 | 0.0506 | – | 0.0772 | 0.0495 | – | – | – | 0.0475 | 0.0722 | 0.0635 | 0.0705 | 0.0734 | 0.064 | – | – | 0.0515 | 0.0622
9 | F38H | 0.0558 | – | 0.066 | – | – | 0.0502 | 0.0572 | 0.0613 | 0.0652 | 0.0507 | 0.0469 | 0.0646 | 0.059 | 0.0665 | 0.0563 | – | – | – | 0.0573
10 | G37Y | 0.0377 | – | – | 0.0472 | 0.0494 | 0.0428 | – | 0.021 | 0.0479 | – | 0.0365 | – | – | 0.0603 | 0.0575 | – | – | 0.0609 | 0.0396
11 | K148H | 0.0668 | – | 0.0643 | 0.0872 | 0.0607 | 0.0544 | 0.077 | – | – | 0.062 | – | 0.0509 | 0.0611 | 0.0481 | 0.0703 | – | – | 0.0747 | 0.0619
12 | L191E | 0.07 | 0.0548 | – | 0.0592 | 0.0613 | 0.0561 | 0.0527 | – | 0.0659 | 0.0627 | – | – | 0.0518 | 0.0502 | 0.0472 | – | 0.0464 | – | –
13 | T70N | 0.0698 | – | – | 0.0751 | 0.0543 | 0.0541 | – | – | 0.0655 | – | 0.0625 | – | 0.0635 | – | – | 0.0605 | 0.0548 | 0.0494 | –
14 | C131V | 0.0463 | – | – | – | 0.0595 | 0.0499 | 0.0734 | – | – | – | – | – | – | – | – | – | – | 0.0593 | 0.0605
15 | D149L | 0.0577 | 0.0634 | 0.0586 | 0.0675 | 0.0793 | 0.0529 | – | – | – | – | 0.036 | 0.0665 | – | 0.0728 | – | – | 0.0572 | – | 0.0681
16 | E25M | 0.0624 | – | 0.0622 | 0.0615 | 0.0843 | 0.0544 | 0.0677 | 0.0542 | 0.0724 | 0.0655 | 0.0548 | 0.0475 | 0.0683 | – | 0.0597 | 0.0572 | 0.0639 | 0.062 | 0.0634

Row | Variant | area with substrate ENLYFAS | area with substrate ENLYFCS | area with substrate ENLYFDS | area with substrate ENLYFES | area with substrate ENLYFFS | area with substrate ENLYFIS | area with substrate ENLYFKS | area with substrate ENLYFLS | area with substrate ENLYFMS | area with substrate ENLYFPS | area with substrate ENLYFRS | area with substrate ENLYFSS | area with substrate ENLYFTS | area with substrate ENLYFYS | area with substrate ENLYFNS | area with substrate ENLYFGS | area with substrate ENLYFVS | area with substrate ENLYFWS | area with substrate ENLYFHS
17 | K98D | 0.0632 | 0.0625 | – | 0.0674 | 0.0714 | 0.065 | 0.0533 | 0.069 | 0.0766 | – | – | 0.0658 | 0.0526 | 0.065 | 0.063 | – | – | 0.064 | 0.0443
18 | T119V | 0.0573 | – | – | – | – | 0.05 | 0.0625 | 0.0597 | 0.0635 | 0.0687 | – | – | 0.0594 | 0.0506 | 0.067 | – | – | – | –
19 | K142A | 0.0602 | – | – | 0.0656 | – | 0.0386 | 0.0612 | – | 0.0572 | 0.0545 | 0.0481 | – | 0.0535 | – | 0.0388 | – | – | – | –
20 | S135W | 0.0597 | 0.0595 | 0.083 | 0.067 | 0.0688 | 0.0498 | 0.0642 | – | 0.0477 | 0.055 | – | – | – | – | 0.0602 | – | 0.0123 | 0.0584 | –
21 | Q74Y | 0.0497 | – | 0.058 | 0.0673 | – | 0.0655 | 0.0638 | – | – | 0.0675 | 0.0562 | – | 0.0672 | 0.0574 | 0.052 | – | – | – | 0.0651
22 | R106M | 0.0616 | 0.0595 | 0.0621 | – | 0.0783 | 0.0605 | – | – | 0.0653 | – | 0.0669 | 0.0719 | 0.0568 | – | 0.0708 | – | – | 0.062 | –
23 | E189F | 0.0553 | – | – | – | 0.0785 | 0.0617 | – | – | 0.0672 | 0.0398 | 0.0609 | – | 0.0525 | – | 0.0715 | – | – | 0.0515 | –
24 | Q105S | 0.0337 | 0.0677 | 0.101 | 0.0681 | 0.0748 | 0.0617 | 0.0697 | – | 0.0591 | – | 0.0614 | 0.0675 | – | – | – | – | – | – | –
25 | T129G | 0.0549 | 0.0509 | 0.0605 | 0.0722 | 0.0603 | 0.0556 | – | – | – | 0.0469 | – | 0.0546 | – | – | – | – | – | – | –
26 | Y34V | 0.0488 | – | – | 0.051 | 0.0686 | 0.0627 | 0.054 | – | 0.0533 | 0.0705 | – | – | – | 0.0578 | 0.0545 | 0.0735 | – | 0.0564 | 0.059
27 | W212P | 0.0433 | 0.0465 | – | – | 0.0684 | – | – | 0.0536 | 0.075 | – | – | 0.0371 | 0.0552 | – | 0.0618 | – | – | 0.0547 | –
28 | F6S | 0.0607 | 0.0423 | – | 0.0714 | 0.0736 | 0.0617 | – | – | – | 0.0922 | – | 0.058 | 0.0466 | – | 0.0623 | – | 0.0467 | – | –
29 | M122R | 0.0612 | 0.0596 | – | – | 0.0576 | 0.0583 | 0.0547 | 0.0463 | 0.0741 | 0.0664 | 0.0779 | – | – | – | – | – | – | – | –
30 | H76K | 0.0466 | 0.0543 | 0.0526 | – | 0.0637 | – | – | 0.0617 | 0.0603 | 0.0626 | – | – | – | – | 0.0415 | – | 0.0448 | 0.0614 | 0.0999
31 | V217K | 0.0666 | – | – | 0.064 | 0.0755 | 0.0661 | 0.0529 | – | – | 0.0627 | 0.0579 | 0.07 | – | – | 0.0733 | 0.0775 | – | 0.0492 | –
